These results are taken from paper PMC4336329 (PLoS ONE, 2015).

Screen size: about 310,000 compounds; about 2,200 (0.71%) showed an effect of 50% or more. The effect is printed as a negative number. The list shows a part of the results.

In this test the target is human ether-à-go-go-related gene (hERG) potassium channel (human, UniProt Q12809). The test can be described thus: primary screen, population patch clamp on CHO cells stably expressing hERG.
human ether-à-go-go-related gene (hERG) potassium channel, sequence (Q12809 whole entry, looked up): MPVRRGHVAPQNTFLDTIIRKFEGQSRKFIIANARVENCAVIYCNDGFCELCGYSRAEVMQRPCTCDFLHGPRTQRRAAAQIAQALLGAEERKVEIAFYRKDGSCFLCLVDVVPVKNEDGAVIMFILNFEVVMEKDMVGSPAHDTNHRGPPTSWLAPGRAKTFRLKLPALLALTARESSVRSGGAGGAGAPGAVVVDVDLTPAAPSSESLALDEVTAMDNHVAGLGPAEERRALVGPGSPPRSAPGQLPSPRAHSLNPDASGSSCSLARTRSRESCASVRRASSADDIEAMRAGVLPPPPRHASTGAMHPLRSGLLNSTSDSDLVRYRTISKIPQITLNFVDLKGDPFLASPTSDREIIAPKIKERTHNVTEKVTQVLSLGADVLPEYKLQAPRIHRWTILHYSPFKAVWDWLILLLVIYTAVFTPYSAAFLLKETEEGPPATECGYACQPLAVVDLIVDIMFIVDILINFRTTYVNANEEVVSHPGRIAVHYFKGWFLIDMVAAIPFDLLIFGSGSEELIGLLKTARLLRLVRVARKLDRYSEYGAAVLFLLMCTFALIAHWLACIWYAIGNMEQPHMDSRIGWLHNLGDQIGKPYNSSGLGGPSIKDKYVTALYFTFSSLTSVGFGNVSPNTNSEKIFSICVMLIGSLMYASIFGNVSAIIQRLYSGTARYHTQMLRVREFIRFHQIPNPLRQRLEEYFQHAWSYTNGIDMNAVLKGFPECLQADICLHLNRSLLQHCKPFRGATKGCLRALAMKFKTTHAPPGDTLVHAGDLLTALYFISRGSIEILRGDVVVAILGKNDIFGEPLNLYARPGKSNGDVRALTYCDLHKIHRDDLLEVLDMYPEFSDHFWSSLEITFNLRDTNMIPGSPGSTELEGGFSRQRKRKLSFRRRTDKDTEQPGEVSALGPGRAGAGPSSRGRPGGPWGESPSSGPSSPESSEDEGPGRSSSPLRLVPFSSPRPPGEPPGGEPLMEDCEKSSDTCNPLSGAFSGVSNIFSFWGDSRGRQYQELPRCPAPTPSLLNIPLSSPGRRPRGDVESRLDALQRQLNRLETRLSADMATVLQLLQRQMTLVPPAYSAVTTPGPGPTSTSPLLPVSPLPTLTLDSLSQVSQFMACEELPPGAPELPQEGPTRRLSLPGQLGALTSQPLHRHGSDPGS
With `COc1cc(C2NC(=S)NC(C)=C2C(=O)OC(C)C)ccc1OC(C)C` (stereo not drawn), the “hERG current change (%, negative = inhibition) at 1uM” value is listed as 5.19%.
As for `Cc1nn(C)c(C)c1/C=N/O`, the “hERG current change (%, negative = inhibition) at 1uM” value is 14.8%.
As for `COC(=O)c1cccc(-n2sc3ccccc3c2=O)c1`, the figure is 18.1%.
The same measure for `Cc1ccc(S(=O)(=O)N2CCC(=O)N(C(COCc3cccc(Cl)c3)C(C)C)CC2)cc1` (stereo not drawn): -6.86%.
As for `O=C(CSC1=Nc2ccccc2C2=NC(CC(=O)NC3CCCCC3)C(=O)N12)NCc1ccco1` (stereo not drawn), the “hERG current change (%, negative = inhibition) at 1uM” value was 11.6%.
The same measure for `COc1ccc(S(=O)(=O)NCCc2ccncc2)cc1`: 16.9%; for `CN(C(=O)COC(=O)c1ccc(F)c(S(=O)(=O)N2CCOCC2)c1)C1CCS(=O)(=O)C1` (stereo not drawn): 3.56%.
As for `O=C(CN1C(=O)COCC1=O)N1CCOCC1`, the figure is 8.13%; as for `COc1cc(CN2CCN(c3ncccn3)CC2)cc(OC)c1`, 8.24%; as for `COc1ccc(C2=C(C=O)Cc3ccccc3O2)cc1`, -2.74%.
The same measure for `CC(=O)n1cc(C2C(=O)CCCC2=O)c2ccccc21`: -1.08%; for `Cc1nc(N=C(N)N)nc2c(C)cccc12`: 11.4%.
As to `O=C(O)c1ccc(-n2ncc3c2/C(=C/c2cccc([N+](=O)[O-])c2)CC3)cc1`, the “hERG current change (%, negative = inhibition) at 1uM” value was 16.9%.
The same measure for `C#CCCc1cocc1/C=[N+](\[O-])c1ccc(C(=O)OCC)cc1`: 6.61%.
On to `NC1CCN(c2c(F)cc3c(=O)c(C(=O)O)cn(C4CC4)c3c2Cl)C1` (stereo not drawn), for which the “hERG current change (%, negative = inhibition) at 1uM” value amounted to 7.46%.
As for `COc1cc(C(=O)NCC(=O)NNC(=O)C2COc3ccccc3O2)cc(OC)c1OC` (stereo not drawn), the figure is 13%; as for `O=C(Nc1cccc(-n2cccn2)c1)C1CCCN(Cc2cccc(F)c2F)C1` (stereo not drawn), 8.5%; as for `O=C(CCc1c[nH]c2ccccc12)NN1C(=O)NC2(CCCCC2)C1=O`, 6.06%.
The same measure for `CC(=O)N1CCN(c2ccc(NC(=O)c3ccco3)cc2)CC1`: -3.25%; for `COc1cc(NC(=S)NNC(=O)CC(C)C)c(OC)cc1Cl`: 7.05%.
The same measure for `COC(=O)CC1=NN(c2ccc(OC)cc2)C(=O)/C1=C\c1ccc(Cl)cc1`: 10.4%; for `Cc1[nH]c2ccccc2c1N=Nc1cccc(C(=O)O)c1`: 11.9%.
Take `CC1CCCCN1C(=O)CSc1nc(-c2ccccc2)cn1N` (stereo not drawn): the “hERG current change (%, negative = inhibition) at 1uM” value was -0.277%.
The same measure for `CCNS(=O)(=O)c1ccc(C(=O)OCc2cc(=O)oc3cc(OC)ccc23)cc1`: 8.38%; for `COc1ccc(C)cc1NC(=O)c1ccccc1N(C)S(=O)(=O)c1ccccc1`: 9.88%; for `Cc1cccn2c(=O)c(C=O)c(N3CCSCC3)nc12`: 8.95%.
As for `COc1cc(OC)cc(-c2nnc(SCC(=O)N3CCOCC3)o2)c1`, the figure is 14%; as for `CCS(=O)(=O)N1CCCC(C(=O)NC2CCC(C)CC2)C1` (stereo not drawn), 0.0198%.
As for `C/C(=N\Nc1ccc(C(=O)O)cc1)c1ccc2c(c1)Nc1ccccc1S2.O=S(=O)(O)O`, the figure is -10.4%; as for `Cc1cc(NS(=O)(=O)c2ccc(NC(=O)C(C)N3C(=O)c4ccccc4C3=O)cc2)nc(C)n1` (stereo not drawn), -1.69%; as for `CCCCc1nc2ccccc2c(C(=O)O)c1C`, 5.75%.
Consider `CCOC(=O)C1(P(=O)(c2ccccc2)c2ccccc2)CCC1`, for which the “hERG current change (%, negative = inhibition) at 1uM” value came out at 14%.
The same measure for `O=C(NCC(c1ccco1)N1CCc2ccccc21)C(=O)Nc1ccc(F)cc1F` (stereo not drawn): -3.87%; for `CCOC(=O)c1cnc(Nc2nc3ccccc3o2)nc1CSc1ncccn1`: 1.37%.
The same measure for `CCn1nnc(NC(=O)c2cccc(-c3cc4ccccc4oc3=O)c2)n1`: -2.15%; for `CCN(C(=O)COC(=O)CCCOc1ccccc1)c1c(N)n(Cc2ccccc2)c(=O)[nH]c1=O`: 14.2%; for `COC(=O)Cn1c(=O)c(C(=O)CCl)c(N)n(Cc2ccccc2)c1=O`: 3.71%.
On to `CCC(C)C(NS(=O)(=O)c1ccc(C)cc1)C(=O)O` (stereo not drawn), for which the “hERG current change (%, negative = inhibition) at 1uM” value came to 7.72%.
As for `O=C(OCn1ncc(Cl)c(Cl)c1=O)c1ccccc1Cl`, the figure is 12.9%; as for `CCOc1ccc(C(C(=O)NCC2CCCO2)N(C(=O)c2snc(C(N)=O)c2N)c2cccc(F)c2)cc1` (stereo not drawn), 17.7%; as for `COCCCNC(=O)C1CCN(S(=O)(=O)N(CC(C)C)CC(C)C)CC1`, 3.85%.
As for `COc1ccc(N2CCN(Cc3nnc(-c4ccccc4)o3)CC2)cc1`, the figure is 12.2%.
As for `COc1ccccc1NC(=O)CCn1c(=O)sc2ccccc21`, the figure is 2.53%; as for `COC(=O)C1=C(COc2ccccc2)NC(=O)NC1c1ccc(Cl)cc1` (stereo not drawn), 10.1%; as for `COCCNC(=O)CSc1nnc(NC(=O)C2CC(=O)N(c3ccccc3OC)C2)s1` (stereo not drawn), 15.3%.
